SMILES strings stand for the structures. Screen size: about 310,000 compounds; about 2,200 (0.71%) showed an effect of 50% or more. The effect is printed as a negative number. This is one part of the list.

human ether-à-go-go-related gene (hERG) potassium channel, sequence (Q12809 whole entry, looked up): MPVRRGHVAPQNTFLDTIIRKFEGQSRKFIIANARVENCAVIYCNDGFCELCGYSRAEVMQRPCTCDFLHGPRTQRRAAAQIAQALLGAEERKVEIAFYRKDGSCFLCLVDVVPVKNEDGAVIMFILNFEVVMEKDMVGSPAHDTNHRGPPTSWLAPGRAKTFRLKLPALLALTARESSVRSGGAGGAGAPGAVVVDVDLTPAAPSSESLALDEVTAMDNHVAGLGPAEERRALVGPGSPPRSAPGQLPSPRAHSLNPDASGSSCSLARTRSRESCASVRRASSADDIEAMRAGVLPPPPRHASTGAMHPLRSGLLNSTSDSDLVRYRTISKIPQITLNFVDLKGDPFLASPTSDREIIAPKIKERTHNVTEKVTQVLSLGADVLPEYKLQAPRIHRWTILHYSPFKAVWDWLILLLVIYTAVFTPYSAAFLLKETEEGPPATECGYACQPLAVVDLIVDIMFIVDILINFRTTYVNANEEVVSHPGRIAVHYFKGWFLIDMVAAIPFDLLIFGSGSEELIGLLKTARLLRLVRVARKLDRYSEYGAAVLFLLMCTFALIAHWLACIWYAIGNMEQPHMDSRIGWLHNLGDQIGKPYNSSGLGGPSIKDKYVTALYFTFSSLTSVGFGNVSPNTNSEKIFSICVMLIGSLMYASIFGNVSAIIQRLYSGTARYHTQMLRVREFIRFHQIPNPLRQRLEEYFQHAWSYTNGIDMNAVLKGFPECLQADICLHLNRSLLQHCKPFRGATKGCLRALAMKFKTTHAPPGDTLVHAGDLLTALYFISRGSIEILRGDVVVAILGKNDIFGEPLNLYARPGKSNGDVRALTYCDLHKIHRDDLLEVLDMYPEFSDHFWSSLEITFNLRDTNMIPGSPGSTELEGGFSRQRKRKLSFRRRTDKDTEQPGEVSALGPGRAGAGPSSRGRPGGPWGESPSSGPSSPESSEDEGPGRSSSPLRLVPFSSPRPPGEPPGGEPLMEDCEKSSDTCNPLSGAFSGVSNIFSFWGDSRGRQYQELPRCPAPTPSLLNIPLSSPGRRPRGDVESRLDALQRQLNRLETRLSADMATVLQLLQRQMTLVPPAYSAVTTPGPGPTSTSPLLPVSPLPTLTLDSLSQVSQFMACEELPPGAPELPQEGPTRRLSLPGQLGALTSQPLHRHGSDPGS

The experiment has as its target human ether-à-go-go-related gene (hERG) potassium channel (human, UniProt Q12809). As to the kind of experiment: primary screen, population patch clamp on CHO cells stably expressing hERG.
`CS(=O)(=O)N(CC(=O)NCc1ccncc1)c1ccc(F)c(Cl)c1`: the “hERG current change (%, negative = inhibition) at 1uM” value is given as 9.53%.
To `COc1ccc(N/C=C/C(=O)c2ccccc2)cc1` belongs 11%.
Consider `CC(O)CNc1nc2c(c(=O)n(C)c(=O)n2C)n1C/C=C/c1ccccc1` (stereo not drawn), for which the “hERG current change (%, negative = inhibition) at 1uM” value is 8.04%.
On to `COc1ccccc1NC(=O)C(C)N(C)CCOc1ccccc1` (stereo not drawn), for which the “hERG current change (%, negative = inhibition) at 1uM” value worked out at 13.2%.
Then `Cn1cccc1CNC(=O)Nc1ccc(Cl)c(Cl)c1`, with 9.41%; and `Cc1ccc(C(=O)N/N=C2\CCSC2)cc1[N+](=O)[O-]`, with 1.94%.
As for `CCO[C@H]1OC(C(=O)O)=C[C@@H](c2ccc(C(F)(F)F)cc2)[C@@H]1CCCO`, the “hERG current change (%, negative = inhibition) at 1uM” value amounted to 17.2%.
Then `CC(=O)Nc1nc(CC(C)C)cc(-c2ccco2)c1C#N`, with 4.98%; and `Oc1ccc(/C=N/Nc2nc(N3CCCCCC3)nc(N3CCCCCC3)n2)c(O)c1`, with 5.13%.
As to `COc1cc(OC)cc(C2=NCCN2)c1.Cl`, the “hERG current change (%, negative = inhibition) at 1uM” value worked out at 7.84%.
In the case of `O=C(Nc1ccc2c(c1)C(=O)NC2=O)c1cc(Cl)ccc1Cl`, the “hERG current change (%, negative = inhibition) at 1uM” value turned out to be 19.4%.
As for `COc1cccc(OCCCCN2CCCCC2)c1`, the “hERG current change (%, negative = inhibition) at 1uM” value is reported as -2.89%.
To `O=C(CCN1C(=O)C2C3C=CC(C3)C2C1=O)Nc1c(F)cccc1F` (stereo not drawn) belongs 2.23%; to `O=S(=O)(c1ccccc1)N(Cc1nc(-c2ccccc2)no1)C1CCCCC1`, 12.4%; to `O=C1NC(=O)C(=Cc2ccc(N3CCOCC3)cc2)C(=O)N1`, 13.8%.
With `O=C(Cc1cccc2ccccc12)N/N=C/c1ccc(F)cc1`, the “hERG current change (%, negative = inhibition) at 1uM” value is listed as 10.9%.
With `Cc1c(OCC(=O)NCCCN2CCCC2=O)ccc2c3c(c(=O)oc12)CCC3`, the “hERG current change (%, negative = inhibition) at 1uM” value came out at 6.73%.
Take `Cn1c(CCNC(=O)c2ccco2)nc2cc(NC(=O)c3ccco3)ccc21`: the “hERG current change (%, negative = inhibition) at 1uM” value was found to be 0.0013%.
As to `O=C(O)/C=C\C(=O)NC1CCCCC1`, the “hERG current change (%, negative = inhibition) at 1uM” value is recorded as 3.36%.
For the compound `Cc1ccc(-c2nnc(SCC(=O)N3CC(C)CC(C)C3)o2)cc1C` (stereo not drawn), the “hERG current change (%, negative = inhibition) at 1uM” value worked out at 9.36%.
With `Cc1ccccc1C(=O)NC=C1C(=O)OC(C)(C)OC1=O`, the “hERG current change (%, negative = inhibition) at 1uM” value is 18.2%.
To `Cc1nn(Cc2ccccc2Cl)c(C)c1NC(=O)c1noc2c1CCCCC2` belongs 10.4%; to `Cc1ccc(S(=O)(=O)Nc2ccc3ccccc3n2)cc1`, 8.34%; to `c1ccc2sc(NN=C3CCCCCC3)nc2c1`, 5.55%.
For the compound `COc1ccc(-c2cc3ccccc3n2CC(O)CN2CCCCC2)cc1.O=C(O)C(=O)O` (stereo not drawn), the “hERG current change (%, negative = inhibition) at 1uM” value is -74.6%.
To `COc1ccc(NC(=O)NC2CCCc3ccccc32)cc1` (stereo not drawn) belongs 11.7%.
As to `CCCN(CCC)C(=O)c1ccc2c(c1)N(CC)C(=O)c1ccccc1S2(=O)=O`, the “hERG current change (%, negative = inhibition) at 1uM” value came out at 4.78%.
As to `CCOC(=O)N1CCN(c2c(N3CCc4ccccc43)c(=O)c2=O)CC1`, the “hERG current change (%, negative = inhibition) at 1uM” value is given as -5.54%.
Regarding `COc1cccc(-c2ccc(=O)n(CC(=O)Nc3ccc(S(=O)(=O)NCC(C)C)cc3)n2)c1`, the “hERG current change (%, negative = inhibition) at 1uM” value is reported as 8.68%.
To `CCOC(=O)C1(C(F)(F)F)N=C(N(C)C)OC(N(C)C)=N1` belongs 8.44%.
To `Cl.O.Oc1cc2c(cc1O)[C@H]1c3ccccc3CN[C@@H]1CC2` belongs 6.84%.
For the compound `Nc1nnnn1/N=C/c1cccc(OCc2ccccc2Cl)c1`, the “hERG current change (%, negative = inhibition) at 1uM” value came to 17.3%.
Consider `Cl.c1ccc(CNc2ncnc3ccccc23)cc1`, for which the “hERG current change (%, negative = inhibition) at 1uM” value is on record as 18%.
On to `NC(=O)Nc1ccc(C(=O)OCC(=O)N2CCCC2=O)cc1`, for which the “hERG current change (%, negative = inhibition) at 1uM” value came to 10.7%.
To `O=C(NCCc1cnc[nH]1)c1cccs1` belongs 15.6%; to `CN(CC(=O)Nc1ccccc1C(=O)NC1CC1)Cc1ccco1`, 8.24%; to `COc1ccc(C(=O)C[n+]2cccc(C(N)=O)c2)cc1.[Br-]`, 10.9%.
As to `O=C(NC1CCCC1)c1ccccc1OCc1ccccc1`, the “hERG current change (%, negative = inhibition) at 1uM” value was determined as 9.23%.
`COc1ccccc1-n1ccn(CC(=O)Nc2ccc(C)cc2Cl)c(=O)c1=O`: the “hERG current change (%, negative = inhibition) at 1uM” value is -5.48%.
Consider `CCOc1ccc(OCCC(=O)OCC(=O)NCc2ccc(Cl)cc2)cc1`, for which the “hERG current change (%, negative = inhibition) at 1uM” value turned out to be 17.5%.
Regarding `COc1ccc(CNCc2cccc(OC)c2OC)cc1Br.O=C(O)C(=O)O`, the “hERG current change (%, negative = inhibition) at 1uM” value is -1.64%.
Then `CC(C)N(Cc1nc(-c2ccccc2)no1)C(=O)CN(C)S(=O)(=O)c1ccccc1`, with 9.61%; and `COc1ccc(NC(=O)c2cc3cc(OC)ccc3oc2=O)cc1`, with 9.27%.
Regarding `CC(C)C(=O)Nc1ccccc1-c1nc2ccccc2[nH]c1=O`, the “hERG current change (%, negative = inhibition) at 1uM” value turned out to be 6.03%.
Then `O=C(NCc1ccc(F)cc1)C1CCC(CNS(=O)(=O)c2ccccc2)CC1` (stereo not drawn), with 11.4%.

(Values after publication PMC4336329 (PLoS ONE, 2015).)
